This is one part of the list.

The assay concerns the target T1, MBP-FoxP1dN (Mus musculus, UniProt P58462 326-579).
T1 sequence: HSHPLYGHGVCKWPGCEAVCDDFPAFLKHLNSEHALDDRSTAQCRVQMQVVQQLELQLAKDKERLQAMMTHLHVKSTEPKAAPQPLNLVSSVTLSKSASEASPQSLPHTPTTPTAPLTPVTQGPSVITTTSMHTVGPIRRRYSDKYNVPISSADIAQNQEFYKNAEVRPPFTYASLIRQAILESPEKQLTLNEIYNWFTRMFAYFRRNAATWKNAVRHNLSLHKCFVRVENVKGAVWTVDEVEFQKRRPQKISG
As to the kind of experiment: PD-seq (MBP pull-down with sequencing); 20 mM Tris-HCl pH 7.5, 100 mM NaCl, 1.5 mM MgCl2, 0.4 uM protein, 0.1 uM dsDNA library, 30 min, room temperature, amylose pull-down; high values mean tight binding. The conditions noted are these: protein: recombinant; tags: His6-MBP; chain copies: 2; dsDNA, one strand shown. The procedure, abridged:
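In Tris pH 7.5 buffer with NaCl and MgCl2, 0.4 µM His6-MBP-tagged mouse FoxP3 or FoxP1 fragment lacking the N-terminus, from E. coli, met 0.1 µM Klenow-filled double-stranded degenerate DNA library for 30 min at room temperature. Three washes on amylose resin followed capture of the complexes, then proteinase K release of DNA, PCR barcoding and Illumina sequencing. Binding is taken as pooled-replicate reads-per-million enrichment of pull-down relative to input.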
On to “GATGATTGTTCTCCCAGCTGATGAATTACTACTCTCGAGTAAACAAATTTTCCTAATCTTTCTGTTCAAGCGCCATCTAC”, for which the binding signal is 1.04 RPM ratio (pull-down/input).
The same measure for “GATGATTGTTCTCCCAGCTGATGAATTCTGCGACTCGAGTAAACAAATTTTCCTAATCTTTCTGTTCAAGCGCCATCTAC”: 0.882 RPM ratio (pull-down/input); for “GATGATTGTTCTCCCAGCTGATGAATTGTAAACGTCGAGTAAACAAATTTTCCTAATCTTTCTGTTCAAGCGCCATCTAC”: 1.41 RPM ratio (pull-down/input).
The same measure for “GATGATTGTTCTCCCAGCTGATGAATTGCTTATATCGAGTAAACAAATTTTCCTAATCTTTCTGTTCAAGCGCCATCTAC”: 1.34 RPM ratio (pull-down/input); for “GATGATTGTTCTCCCAGCTGATGAATTGTGAATATCGAGTAAACAAATTTTCCTAATCTTTCTGTTCAAGCGCCATCTAC”: 1.17 RPM ratio (pull-down/input).
As for “GATGATTGTTCTCCCAGCTGATGAATTCACTTGCTCGAGTAAACAAATTTTCCTAATCTTTCTGTTCAAGCGCCATCTAC”, the figure is 0.849 RPM ratio (pull-down/input); as for “GATGATTGTTCTCCCAGCTGATGAATTGAACTGTTCGAGTAAACAAATTTTCCTAATCTTTCTGTTCAAGCGCCATCTAC”, 0.861 RPM ratio (pull-down/input).
In the case of “GATGATTGTTCTCCCAGCTGATGAATTCCCAAGATCGAGTAAACAAATTTTCCTAATCTTTCTGTTCAAGCGCCATCTAC”, the binding signal was 0.773 RPM ratio (pull-down/input).
The same measure for “GATGATTGTTCTCCCAGCTGATGAATTCGAGACTTCGAGTAAACAAATTTTCCTAATCTTTCTGTTCAAGCGCCATCTAC”: 0.824 RPM ratio (pull-down/input); for “GATGATTGTTCTCCCAGCTGATGAATTTCTGCATTCGAGTAAACAAATTTTCCTAATCTTTCTGTTCAAGCGCCATCTAC”: 1.35 RPM ratio (pull-down/input).
Take “GATGATTGTTCTCCCAGCTGATGAATTGCTGTGGTCGAGTAAACAAATTTTCCTAATCTTTCTGTTCAAGCGCCATCTAC”: the binding signal is 1.07 RPM ratio (pull-down/input).
The same measure for “GATGATTGTTCTCCCAGCTGATGAATTAAGTCAGTCGAGTAAACAAATTTTCCTAATCTTTCTGTTCAAGCGCCATCTAC”: 0.83 RPM ratio (pull-down/input).
As for “GATGATTGTTCTCCCAGCTGATGAATTGATTTTATCGAGTAAACAAATTTTCCTAATCTTTCTGTTCAAGCGCCATCTAC”, the figure is 1.22 RPM ratio (pull-down/input); as for “GATGATTGTTCTCCCAGCTGATGAATTGGGACGTTCGAGTAAACAAATTTTCCTAATCTTTCTGTTCAAGCGCCATCTAC”, 0.92 RPM ratio (pull-down/input).
As to “GATGATTGTTCTCCCAGCTGATGAATTAAAATAATCGAGTAAACAAATTTTCCTAATCTTTCTGTTCAAGCGCCATCTAC”, the binding signal was 1.39 RPM ratio (pull-down/input).
As for “GATGATTGTTCTCCCAGCTGATGAATTCTACGAATCGAGTAAACAAATTTTCCTAATCTTTCTGTTCAAGCGCCATCTAC”, the figure is 0.895 RPM ratio (pull-down/input).
As for “GATGATTGTTCTCCCAGCTGATGAATTGACCAGATCGAGTAAACAAATTTTCCTAATCTTTCTGTTCAAGCGCCATCTAC”, the figure is 0.901 RPM ratio (pull-down/input); as for “GATGATTGTTCTCCCAGCTGATGAATTGAAAGGGTCGAGTAAACAAATTTTCCTAATCTTTCTGTTCAAGCGCCATCTAC”, 0.737 RPM ratio (pull-down/input).
“GATGATTGTTCTCCCAGCTGATGAATTCCACAAGTCGAGTAAACAAATTTTCCTAATCTTTCTGTTCAAGCGCCATCTAC”: the binding signal was 0.802 RPM ratio (pull-down/input).
Take “GATGATTGTTCTCCCAGCTGATGAATTGTTGCACTCGAGTAAACAAATTTTCCTAATCTTTCTGTTCAAGCGCCATCTAC”: the binding signal was 1.76 RPM ratio (pull-down/input).
In the case of “GATGATTGTTCTCCCAGCTGATGAATTAAGTGGCTCGAGTAAACAAATTTTCCTAATCTTTCTGTTCAAGCGCCATCTAC”, the binding signal was 0.903 RPM ratio (pull-down/input).
As for “GATGATTGTTCTCCCAGCTGATGAATTTCTTGGGTCGAGTAAACAAATTTTCCTAATCTTTCTGTTCAAGCGCCATCTAC”, the figure is 0.716 RPM ratio (pull-down/input).
The same measure for “GATGATTGTTCTCCCAGCTGATGAATTTTCAACGTCGAGTAAACAAATTTTCCTAATCTTTCTGTTCAAGCGCCATCTAC”: 0.89 RPM ratio (pull-down/input); for “GATGATTGTTCTCCCAGCTGATGAATTCTGCCAATCGAGTAAACAAATTTTCCTAATCTTTCTGTTCAAGCGCCATCTAC”: 1.01 RPM ratio (pull-down/input); for “GATGATTGTTCTCCCAGCTGATGAATTGAGTGATTCGAGTAAACAAATTTTCCTAATCTTTCTGTTCAAGCGCCATCTAC”: 0.981 RPM ratio (pull-down/input).
For the sequence “GATGATTGTTCTCCCAGCTGATGAATTTCGACCTTCGAGTAAACAAATTTTCCTAATCTTTCTGTTCAAGCGCCATCTAC”, the binding signal was 0.788 RPM ratio (pull-down/input).
Regarding “GATGATTGTTCTCCCAGCTGATGAATTACGTCTATCGAGTAAACAAATTTTCCTAATCTTTCTGTTCAAGCGCCATCTAC”, the binding signal is 1.06 RPM ratio (pull-down/input).
The same measure for “GATGATTGTTCTCCCAGCTGATGAATTCAGATACTCGAGTAAACAAATTTTCCTAATCTTTCTGTTCAAGCGCCATCTAC”: 0.888 RPM ratio (pull-down/input).
As for “GATGATTGTTCTCCCAGCTGATGAATTTGAGACATCGAGTAAACAAATTTTCCTAATCTTTCTGTTCAAGCGCCATCTAC”, the figure is 0.988 RPM ratio (pull-down/input).
With “GATGATTGTTCTCCCAGCTGATGAATTATACTACTCGAGTAAACAAATTTTCCTAATCTTTCTGTTCAAGCGCCATCTAC”, the binding signal is 0.979 RPM ratio (pull-down/input).
On to “GATGATTGTTCTCCCAGCTGATGAATTTTTCATCTCGAGTAAACAAATTTTCCTAATCTTTCTGTTCAAGCGCCATCTAC”, for which the binding signal is 0.937 RPM ratio (pull-down/input).

For the origin of these results see publication PMC12820563, “FoxP3 forms a head-to-head dimer in vivo and stabilizes its multimerization on adjacent microsatellites”.
